Source: the RNAGym collection of RNA variant scans (doi:10.1093/nar/gkz1192)
The source gives no read counts; variants with many changes may rest on few reads.

B1: CPEB3 Ribozyme (parent)
chain: UAACAGGGGGCCACAGCAGAAGCGUUCACGUCGCAGCCCCUGUCAGAUUCUGGUGAAUCUGCGAAUUCUGCUGUAUAUCUC

Variants of: B1
Test: self-cleavage, relative activity (ratio to wild type); higher = more cleavage; in vitro, sequencing
In short: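 Relative activity was defined as the cleaved/total read fraction for a variant divided by the same fraction for the unmutated ribozyme. CPEB3 self-cleaving ribozyme libraries were made by rounds of error-prone PCR, barcoded, and transcribed in vitro with T7 RNA polymerase for 5 hours at 37°C, and cleavage ran through transcription plus a 15 min DNase I step before EDTA. Illumina sequencing of template-switched reverse transcripts gave the reads, and DNA sequencing mapped the barcodes. Averages come from three batches, using variants with at least 5 reads.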

Row | Variant | self-cleavage
1 | UAGCAGGGGGCCACAGCAGAAGCGCUCACGUCGCAGCCCCUGUCAGUUUCUGGUGGAUCUGCGAAUUCUGCCGUAUAUCUC | 0.31
2 | UAGCAGGGGGCCACAGCAGAAGCGACCACGACGCAGCCCCAGUCAGAUUCUGGUGAAUCUGCGAAUUCUGCUGUAAAUCUC | 0.12
3 | UAGCAGGGGGCCACAGCAGAAGCGCUCACGUCGCAGCCGCUGUCAGAUUCUGGUGAGUCAGCGAAUCCUGCUGUAUAUCUC | 0.06
4 | UAGCAGGGGGCCACAGCAGAAGCGACCACGCCGCAGCCCCUGUCAGAUUCUGGUGAAUCUGCGAAUUCUGCUAUAUAUCUC | 0.14
5 | UAGCAGGGGGCCACAGCAGAAGCGUUCACGUCGCAGCCCCUGUCAGAUUCUGGUUAAUCUGCGAAUUCUGCCGUAUAUCUC | 1.06
6 | UAGCAGGGGGCCACAGCAGAAGCGUUCACGUCGCAGCCCCUGUCAGAUUCUGGUGAAUCUGCAGGUUCUGCUGUAUAUCUC | 0.21
7 | UAGCAGGGGGCCACAGCAGAAGCGCUCUCGUCGCAGCCCCUGUCAGAUUCUGGUGAAUCUGCGUAUUCUGCUGUAUAUCUC | 0.33
8 | UAGCAGGGGGCCACAGCAGAAGCGGUCACGUCGCAGCCCCUGUCAGUUUCUGGUGAAUCUGCGAAUUCUGCUGUAUAUCCC | 0.1
9 | UAGCAGGGGGCCACAGCAGAAGCGAUCACGUCGCAGCACCUGUCAGAUUCUGGUGUAUCUGCGAAUUCUGCUGUAUAUCUC | 0.18
10 | UAGCAGGGGGCCACAGCAGAAGCGUACACGUCGCUGCCCCUGUCAGAUUCUGGUGAAUCUGCGAAUUCUGCUGUAUAUCUC | 0.48
11 | UAGCAGGGGGCCACAGCAGAAGCGCUCACGUCGCAGCCCCAGUCAGAUUCUGGUGAAUCUGCGAAUCCUGCUGUAUAUCUC | 0.03
12 | UAGCAGGGGGCCACAGCAGAAGCGCUCACGCCGCAGCCCCUGUCAGAUUCUGGCGAAUCUGCGAAUUCUGCUGUAUAUCUC | 0.14
13 | UAGCAGGGGGCCACAGCAGAAGCGAUCUCGUCGCAGCCCCUGUCAGAUUCAGGUGAGUCUGCGAAUUCUGCUGUAUAUCUC | 0.08
14 | UAGCAGGGGGCCACAGCAGAAGCGUUCACGUCGCAGCCCCUGUCAGAUUCUGGUGAAUCUACGAAUCCCGCUGUAUAUCUC | 0.39
15 | UAGCAGGGGGCCACAGCAGAAGCGCUUACGCCGCGGCCCCUGUCAGUUUCUGGUGAAUCUGCGAAUUCUGCUGUAUAUCUC | 0.17
16 | UAGCAGGGGGCCACAGCAGAAGCGAUCACGUCGCAGCCCCUGUCUGAUUCUGGUGAAUCUGCGAAUUCUGCUGUAUAUCUC | 0.18
17 | UAGCAGGGGGCCACAGCAGAAGCGAUCACGUCGCAGCCCCUGUCAGAUUCAGGUGAAUCUGCGAAUUCUGCCGUAUAUCUC | 0.08
18 | UAGCAGGGGGCCACAGCAGAAGCGCUCACGUCGCAGCCCCUGUCAGGUUCUGGUGAGUCUGCGGAUUCUGCUGUAUAUCUC | 0.21
19 | UAGCAGGGGGCCACAGCAGAAGCGAUCACGUCGCAGCCCUUGUCAGAUUCUGGUGAAUCUGCGAAUUCUGCUGUAUAUCUC | 0.12
20 | UAGCAGGGGGCCACAGCAGAAGCGCUCACGACGCAGCCCCUGUCAGAUUCCGGUGAGUCUGCGAAUUCUGCUGUCUAUCUC | 0.13
21 | UAGCAGGGGGCCACAGCAGAAGCGCUCACGUCGCAGCCCCUGUCAGAUUCUGGGGCAUCUGCGAAUUCUGCUGUAUAUCAC | 0.05
22 | UAGCAGGGGGCCACAGCAGAAGCGCUCACGUCGCAGCCCCUGACAGGUUCUGGUGAAUCUGCGAAUUCUGCUGUAUAUCUC | 0.39
23 | UAGCAGGGGGCCACAGCAGAAGCGUACACGUCGCAGCCCCUGUCUAAUUCUGGUGGAUCUGCGAAUUCUGCUGUAUUUCUC | 0.37

Row | Variant | self-cleavage
24 | UAGCAGGGGGCCACAGCAGAAGCGCUCACGACGCAGCCCCUGUCAGAUUCUGGUGAAUCUGCGAAUUCUGCUGUAUAUCUC | 0.57
25 | UAGCAGGGGGCCACAGCAGAAGCGCUCACGCCGCAGCCCCUGUCAGAUUCUGGUGAAUCUGCGAAUUCUGCUGUAUAUCUC | 0.13
26 | UAGCAGGGGGCCACAGCAGAAGCGUUCACGUCGCAGCCCCUGUCAGAUUCUUGUGAAUCUGCGAAUUCUGCUGUUUAUCUC | 1.07
27 | UAGCAGGGGGCCACAGCAGAAGCGCUCACGUCGCAGCCCCAGUCAGAUUCUGAUGAAUCUGCGAAUUCUGCUGCAUAUCAC | 0.29
28 | UAGCAGGGGGCCACAGCAGAAGCGCUCACGUCGCAGCCCCUGUCAGAUUCUGGUGAAACGGCGAAUUCUGCUGUUUAUCUC | 0.07
29 | UAGCAGGGGGCCACAGCAGAAGCGCUCACGUCGCAGCCCCUGUCAGAUUCUGGUGAACCUGCGAAUUCUGCUGUAUAUCUC | 0.13
30 | UAGCAGGGGGCCACAGCAGAAGCGCUCACGACGCAGCCCCUGUCAGAUUCUGGUGGAUCUGCGAAUUCUGCCGUAUAUCUC | 0.39
31 | UAGCAGGGGGCCACAGCAGAAGCGAUCACGUCGCAGCCCCUGUCAGAUUCUGGUGAAUCUGCGAAUUCUGCUGUAUAUCAC | 0.13
32 | UAGCAGGGGGCCACAGCAGAAGCGCUCACGUCGCAGCCCCUGUCAGAUUUUGGUGGAUCUGCGAAUUCUGCUGUAUAUCUC | 0.32
33 | UAGCAGGGGGCCACAGCAGAAGCGCUCACGUCGCGGCCCCUGUCAGAUUCUGGUGAAUCCGCGAAUUCCGCUGUAUAUCUC | 0.11
34 | UAGCAGGGGGCCACAGCAGAAGCGCUCACGUCGCAGCCCCUGACAGAUUCUGGUGAAUCUGCGAAUUCUGCUGUAUAUCUC | 0.19
35 | UAGCAGGGGGCCACAGCAGAAGCGCUCACGUCGCAGCUCCCGUCAGAUUCUGGCGAAUCUGCGAAUUCUGCCGUAUAUCUC | 0.23
36 | UAGCAGGGGGCCACAGCAGAAGCGGACACGUCGCAGCCCCUGUCAGAUUCUGGUGAAUCUGCGAAUUCUGCUGUAUAUCUC | 0.76
37 | UAGCAGGGGGCCACAGCAGAAGCGCUCACGUCGCAGCCCCUGUCAGAUUCUGGUGAAUCUGCGAAUUCUGGUGUAUAACUC | 0.24
38 | UAGCAGGGGGCCACAGCAGAAGCGCACACGUCGCAGCCACUGUCAGAUUCUGGUGAAUCCGCGAACUCUACUGUAUAUCUC | 0.07
39 | UAGCAGGGGGCCACAGCAGAAGCGCUCACGUCGCUGCCCCUGUCAGAUUCUGGUGAGUCUGCGAAUUCUGCUGUAUAUCUC | 0.4
40 | UAGCAGGGGGCCACAGCAGAAGCGCCCACGUCGCAGCCCCUGUUAGAUUCUGGUGAAUCUGCGAAAUCUGCUGUAUAUCUC | 0.1
41 | UAGCAGGGGGCCACAGCAGAAGCGCUCACGUCGCAGCCCCUGUCGGAUUCUGGCGAAUCUGCGAAUUCUGCCGUAUAACUC | 0.07
42 | UAGCAGGGGGCCACAGCAGAAGCGGUCACGUCGCAGCCCCUGUCUGAUUCUGGUGAAUCUGCGAAUUCUGCUGUAUAUCUC | 0.35
43 | UAGCAGGGGGCCACAGCAGAAGCGCUCACGUCGCGGCCCCUGUCAGAUUCUGGUGAAUCUGCAAAUUCUGCUGUAUAUCUC | 0.18
44 | UAGCAGGGGGCCACAGCAGAAGCGUACACGUCGCUGCCCCUGACAGAUUCUGGUGAAUCUGCGAAUUCCGCUGUAUAUCUC | 0.35
45 | UAGCAGGGGGCCACAGCAGAAGCGCUCACGUCGCAGCCCCCGUCAGAUUCUGGUGAAUCUGCGAAUUCUGCUGUAUAUCUC | 0.59
46 | UAGCAGGGGGCCACAGCAGAAGCGUACGCGUCGCAGCCCCUGUCAGAUUCUGGUGAAUCUGCGAAUCCCGCUGUAUAUCUC | 0.2

Row | Variant | self-cleavage
47 | UAGCAGGGGGCCACAGCAGAAGCGGUCACGUCGCUGCCCCAGUCAGAUUCUGGUGAAUCUGCGAGUUCUGCUGUAUAACUC | 0.02
48 | UAGCAGGGGGCCACAGCAGAAGCGCUCACGUCGCAGCCCCUGCCAGAUCCUGGUGAAUCUGCGAAUACUGCUGUAUAUCUC | 0
49 | UAGCAGGGGGCCACAGCAGAAGCGCUCACGUCGCGGCCCCUGUCAGAUUCUGGUGAAUCUGCGAAUUCUGCUGUAUAUCUC | 0.43
50 | UAGCAGGGGGCCACAGCAGAAGCGUACACGUCGCAGCCCCUGUCUGAUCCGGGUGAGUCUGCGAAUUCUGCUGUAUAUCCC | 0.24
51 | UAGCAGGGGGCCACAGCAGAAGCGAUCACGUCGCAGCCCCUGUCAGAUUCUGGUGAAUCUGCGAAUUCAGCUGUAUAUCUC | 0.38
52 | UAGCAGGGGGCCACAGCAGAAGCGCCCACGUCGCAGCCCCUGUCAGAUUCUGGCGAAUCUGCGAAUUCCGCUGUAUAUCUC | 0.07
53 | UAGCAGGGGGCCACAGCAGAAGCGCUCACGACGCAGCCCCUGUCAGAUCCUGGUGUAUCUGCGAAUUCUGCUGUAUUCCUC | 0.26
54 | UAGCAGGGGGCCACAGCAGAAGCGGUCACGUCGCAGCCCCUGUCAGAUUCUGGUGAAUCUGCGAAUUCUGCUGUAUAUCCC | 0.44
55 | UAGCAGGGGGCCACAGCAGAAGCGCUCACGUCGCAGCCCCUGUCAGAUUCUGGUGAAUCAGCGAAUUCUGCUGUAUAUCUC | 0.06
56 | UAGCAGGGGGCCACAGCAGAAGCGAUCACGUCGCAGCCCCUGUCAGAUUCUGGUGAAUCUGCGAACUCUGCUGUAUAUCUC | 0.1
57 | UAGCAGGGGGCCACAGCAGAAGCGCUCACGUAGCAGCCCCUGUCGGAUUCUGGUGAAUCUGCGUAUUCUGCUGUAUACCUC | 0.16
58 | UAGCAGGGGGCCACAGCAGAAGCGCUCACGUCGCAGCCCCUGUCAGAUUAUGGUGAAUCUGCGAAUUCUGCUGUAUAUCUC | 0.44
59 | UAGCAGGGGGCCACAGCAGAAGCGAUCACGUCGCAGCCCCUGUCAGAUUCUGGUGAAUCUGCGAAUUAUGCUGUAUAUCUC | 0.44
60 | UAGCAGGGGGCCACAGCAGAAGCGCUCACGUCGCAGCCCCUGUCAGAUUCUGGUGAGUCUGCGAAUACUGCUGUAUAUCUC | 0.25
61 | UAGCAGGGGGCCACAGCAGAAGCGCUCACGUCGCAGCCCCUGUCAGGUUCUGGUGAAUCUGCGAAUUCCGCUGUAUAUCUC | 0.35
62 | UAGCAGGGGGCCACAGCAGAAGCGAUCACGACGCAGCCCCUGUCAGAUUCUGGUGAAUCUGCGAAUUCUGCUGUAUAUCUC | 0.54
63 | UAGCAGGGGGCCACAGCAGAAGCGAUCACGUCGCAGCCCCUGUCAGAUUCUGGUGAAUCCGCGGAUUCUGCUGUAUAUCUC | 0.37
64 | UAGCAGGGGGCCACAGCAGAAGCGCUCACGUCGCGGCCCCUGUCGGAUUCUGGUGGAUCUGCGAAUUCUGCUGUAUAUCUC | 0.4
65 | UAGCAGGGGGCCACAGCAGAAGCGCUCACGUCGCAGCCCCUAUCAGAUUCUGGUGAAUCUGCGAAUUCUGCUAUAUAUCUC | 0.73
66 | UAGCAGGGGGCCACAGCAGAAGCGAUCACGUCGCAGCCCCUGUCAGAUUCUGGCGAAUCUGCGAAUUCUGCUGUAUAUCUC | 0.15
67 | UAGCAGGGGGCCACAGCAGAAGCGAUCACGUCGCGGCCCCAGUCAGAUUCUGGUGAAUCUGUGAAUUCUGCCGUAUAUCUC | 0.08
68 | UAGCAGGGGGCCACAGCAGAAGCGCUCACGUCGCAGCCCCUGUCAGACCCUAGCGAAUCUGCGAAUUUUGCUGUAUAUCUC | 0.05
